Laboratory results taken from US10100076B2, “Modified nucleosides for the treatment of viral infections and abnormal cellular proliferation” (priority 2000, dated 2018).

System: Bovine viral diarrhea virus (BVDV), strain NADL
Test: BVDV antiviral assay in MDBK cells, viral load by real-time RT-PCR
Type: cell-based
Details: for Ave. Log Reduction, BVDV viral load 22 hours post infection: MDBK cells, maximal viral load reduction observed; for viral RNA after treatment, in words: MOI 0.02, 22 hours, FIG. 3

Compound | Ave. Log Reduction, BVDV viral load 22 hours post infection (conc. 100 μM) [log] | further results
Nc1nc(=O)n([C@@H]2O[C@H](CO)[C@@H](O)[C@H]2O)cc1F [β-D-AQ] | 0.87 | 
Nc1ccn([C@@H]2O[C@H](CO)[C@H](Br)[C@H]2O)c(=O)n1 [β-D-AI] | 1.52 | 
Nc1nc(SSc2nc(N)nc3c2ncn3[C@@H]2O[C@H](CO)[C@@H](O)[C@H]2O)c2ncn([C@@H]3O[C@H](CO)[C@@H](O)[C@H]3O)c2n1 [β-D-QA] | 1.50 | 
N=c1nc2n(cc1F)[C@@H]1O[C@H](CO)[C@@H](O)[C@@H]1O2 [β-D-MF] | 1.41 | 
Nc1nc(=O)n([C@@H]2C=C(CO)[C@@H](O)[C@H]2O)cc1F [β-D-HB] | 2.26 | 
Nc1nc(=O)n([C@@H]2O[C@H](CO)[C@H](Br)[C@H]2O)cc1I [β-D-BE] | 1.23 | 
CS(=O)(=O)OC1C(CO)OC(n2ccc(N)nc2=O)C1O [β-D-AK] | 1.90 | 
Nc1ccn([C@@H]2O[C@H](CO)[C@@H](O)[C@@H]2Cl)c(=O)n1 [β-D-AN] | 1.21 | 
Nc1ncnc2c1ncn2[C@@H]1O[C@H](CO)C[C@H]1O [β-D-DK] | 2.17 | 
CC1(CO)CO[C@@H](n2cnc3c(N)nc(F)nc32)C1 (stereo partly drawn) [β-D-VA] | 4.69 | 
Nc1nc(F)nc2c1ncn2[C@@H]1C=C[C@H](CO)O1 [β-L-FC] | 2.39 | 
Nc1ccn([C@@H]2O[C@H](CO)C[C@H]2O)c(=O)n1 [β-D-AJ] | 1.34 | 
O=c1[nH]c(=O)n([C@@H]2O[C@H](CO)[C@@H](O)[C@H]2O)cc1O [β-D-CL, 5-hydroxyuridine] |  | viral RNA after treatment, in words: almost complete absence of viral RNA; Ave. Log Reduction, BVDV viral load 22 hours post infection (conc. 40 μM): 3.10 log
OC[C@H]1O[C@@H](n2cnc3c(Cl)ncnc32)[C@H](O)[C@@H]1O [β-D-DJ] |  | Ave. Log Reduction, BVDV viral load 22 hours post infection (conc. 40 μM): 1.58 log
N=c1ccn2c(n1)O[C@H]1[C@H](O)[C@@H](CO)O[C@H]12 [β-D-ME] | 2.41 | 
NC(=O)c1ncn([C@@H]2O[C@H](CO)[C@@H](O)[C@H]2O)n1 [RIB, ribavirin, reference compound] |  | viral RNA after treatment, in words: almost complete absence of viral RNA
Nc1nc(=O)n(C2OC(CO)C(Br)C2O)cc1F [β-D-AT] | 1.42 | 
N=c1nc(N)ccn1[C@@H]1O[C@H](CO)[C@@H](O)[C@@H]1O [β-D-BL] | 1.20 | 
O=c1nc(NO)ccn1[C@@H]1O[C@H](CO)[C@@H](O)[C@H]1O [β-D-BS] |  | anti-BVDV / anti-flaviviridae activity, in words: potent anti-flaviviridae activity; Ave. Log Reduction, BVDV viral load 22 hours post infection (conc. 10 μM): 1.48 log
CC(=O)O[C@H]1[C@@H]2Oc3nc(=N)ccn3[C@@H]2O[C@@H]1CO [β-D-MD] | 2.16 | 
Nc1nc(=O)n([C@@H]2O[C@H](CO)[C@@H](O)[C@@H]2O)cc1F [β-D-AP] | 1.36 | 
[2H]c1c(N)nc(=O)n([C@@H]2O[C@H](CO)[C@@H](O)[C@@H]2O)c1[2H] [β-D-AO] | 2.24 | 
OC[C@@H]1C[C@@H](O)[C@H](n2cnc3c(Cl)ncnc32)O1 [β-D-DL] | 1.33 | 
Cc1ccc(S(=O)(=O)O[C@@H]2[C@@H](O)[C@H](n3ccc(N)nc3=O)O[C@@H]2CO)cc1 [β-D-AL] | 1.55 | 
CC(=O)Nc1ccn([C@@H]2O[C@H](CO)[C@@H](O)[C@@H]2O)c(=O)n1 [β-D-BO] | 0.80 | 
Nc1ccn([C@@H]2C=C(CO)[C@@H](O)[C@H]2O)c(=O)n1 [β-D-HA] | 2.87 | 
N=c1nc2c(c[nH]1)[C@@H]1O[C@H](CO)[C@@H](O)[C@@H]1O2 [β-D-TA] | 1.30 | 
O=c1ccn([C@@H]2O[C@H](CO)C[C@H]2O)c(=O)[nH]1 [β-D-CM] |  | Ave. Log Reduction, BVDV viral load 22 hours post infection (conc. 40 μM): 1.77 log
Nc1ccn([C@@H]2O[C@H](CO)[C@@H](O)[C@@H]2O)c(=O)n1 [β-D-AA] | 2.43 | 
